According to PubChem BioAssay AID493208 (National Center for Advancing Translational Sciences (NCATS), 2011):
The whole screen tested about 44,000 compounds, of which about 340 (0.77%) were called active. Inconclusive results (about 5%) are left out. The call rests on the fitted dose curve; in most records, active means well fitted inhibition curve with a large enough effect; inconclusive means small, poorly fitted or top-dose-only effect; inactive means flat fitted curve, though single readings scatter. The list shows a part of the results.

Experiment: Acumen qHTS Assay for Inhibitors of the mTORC1 Signaling Pathway in MEF (Tsc2-/-, p53-/-) Cells: Sytravon;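 further: plate controls were DMSO for no effect and rapamycin for full effect; nearly all actives have a fitted effect of over 50% in size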
Settings: phospho-rpS6 immunofluorescence/PI, 24 h; series mostly up to 38.3 µM; activity change, negative = inhibition: at the top concentration
Procedure, shortened: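 Immunofluorescence of rpS6 phosphorylation in Tsc2-/-, p53-/- MEFs after 24 h compound exposure, normalized to propidium iodide signal. Activity is expressed as % positive cells, thresholded with 7.5 nM rapamycin.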

Activity change, negative = inhibition, inactive:
Cn1c(=O)c2c(SCC(=O)Nc3ccc(F)cc3F)nc(C3CCCC3)nc2n(C)c1=O 8.97%
CSc1cccc(NC(=O)CN2C(=O)COc3ccc(S(=O)(=O)N4CCC(C)CC4)cc32)c1 -11.3%
Cc1ccc(C)c(NC(=O)Cn2ccn(-c3ccc(F)cc3)c(=O)c2=O)c1 -4.42%
Cc1ccccc1CNC(=O)c1ccc2[nH]c(C)c(C)c2c1 -6.9%
Cc1ccc(-c2nc3c4ccccc4n(CC(=O)N4CCN(c5ccc(F)cc5)CC4)c(=O)n3n2)cc1 -11.5%
Cc1cc(C)cc(Nc2cc(C)nc3nc(-c4ccco4)nn23)c1 11.7%
Cc1cc(N2CCC(C(=O)NCCC(C)C)CC2)n2nc(C)c(-c3ccc(Cl)cc3)c2n1 0.218%
Cc1ccc(CN(C(=O)c2ccccc2[N+](=O)[O-])c2ccccn2)cc1 -0.656%
CCC(C)NC(=O)Cn1c(-c2cccs2)cc2cc(Cl)ccc21 (centres undefined) 0.449%
CCOC(=O)c1c(NC(=O)c2cc(-c3ccc(Cl)cc3)on2)sc(C)c1C -1.24%
Cc1ccc(Cl)cc1NC(=O)Cn1ncc2c(C)n(Cc3ccccc3F)c(C)c2c1=O 1.22%
CC(C)(C)NC(=O)c1ccc2nc(CCc3ccccc3)oc2c1 -2.83%
CC1CN(C(=O)CCC(=O)NCc2ccccc2)c2cc(Cl)ccc2O1 (centres undefined) 0.573%
COc1ccc(-c2nc(-c3ccccc3)c(-c3ccc(F)cc3)[nH]2)c(OC)c1C -5.64%
Cc1cc(C)cc(N2C(=O)CCSC23C(=O)N(Cc2ccccc2)c2ccccc23)c1 (centres undefined) 3.81%
CCOc1ccc(CCNC(=O)c2ccc3c(c2)sc2nc(-c4ccc(F)cc4)cn23)cc1OCC -3.54%
O=S(=O)(NCCc1csc2nc(-c3ccc(F)cc3)nn12)c1ccc(Oc2ccccc2)cc1 0.166%
Cc1ccc(C(CC(=O)Nc2ccc(F)c(Cl)c2)N2Cc3ccccc3C2=O)cc1 (centres undefined) 0%
CC(C)c1ccc(NC(=O)CCn2c(=O)c3cccn3c3ccccc32)cc1 2.19%
COc1cccc(CNCCSc2nnnn2C)c1OCc1ccc(F)cc1 -7.43%
Cc1ccc(N2CC(NC(=O)C3CC3)CC2=O)cc1C (centres undefined) -1.67%
CCOC(=O)c1ccn(-c2nc(-c3cccc(OC)c3)cc(C(F)(F)F)n2)n1 -7.57%
Cc1nc2sccn2c(=O)c1S(=O)(=O)Nc1ccc(N2CCN(C(=O)C(C)C)CC2)cc1 -5.51%
COc1cc(C(=O)Nc2nonc2-c2ccc(Cl)cc2)cc(OC)c1OC 1.4%
CCOC(=O)c1[nH]c(C)c(CCC(=O)Nc2ccc(Br)c(C)c2)c1C -13.5%
Cn1nnnc1SCCCNCc1cc(Cl)ccc1OCc1ccccc1F -8.72%
CCCCCc1nn2cc(-c3ccccc3)nc2s1 1.58%
Cc1ccc(NC(=O)Cn2cnc3sc(C)c(S(=O)(=O)N4CCN(c5ncccn5)CC4)c3c2=O)cc1F 3.26%
COC(=O)c1ccc(NC(=O)CC2C(=O)N(c3ccccc3)C(=O)N2Cc2ccco2)cc1 (centres undefined) -7.16%
Cc1cccc(N2CCN(S(=O)(=O)c3c(C(=O)N4CCC(C)CC4)c(C)n(C)c3C)CC2)c1C 20.5%
COc1ccc(NC(=O)CSC2=Nc3ccccc3C3=NC(CC(=O)NCc4ccc5c(c4)OCO5)C(=O)N23)cc1 (centres undefined) -3.89%
CCOc1ccc(C(c2c(O)cc(C)n(Cc3ccco3)c2=O)N2CCN(c3ccccc3)CC2)cc1 (centres undefined) 7.23%
CCCc1cnc2c(c1SCC(=O)Nc1ccccc1F)c(=O)n(C)c(=O)n2C -3.7%
Cc1cccc(CNC(=O)C2CCN(S(=O)(=O)c3ccc4c(c3)CCCN4C(=O)C3CCC3)CC2)c1 -5.52%
Cc1ccc(C2C=C(c3ccc(Cl)cc3)Nc3nc(NC(=O)c4ccco4)nn32)cc1 (centres undefined) -26.2%
COc1cc(Nc2ncc3c(n2)CCN(Cc2cc(F)cc(F)c2)C3)cc(OC)c1 3.06%
CCCC12CN3CC(CCC)(CN(C1)C3c1c(C)[nH]c(=O)[nH]c1=O)C2=O (centres undefined) -0.847%
CCc1nn(Cc2c(C)cc(C)cc2C)c(=O)c2cc3cc(C)ccc3n12 -2.88%
CCOc1ccccc1NC(=O)c1nn(C)c2c1CSc1ccccc1-2 -19.1%
COc1ccc(C)cc1NC(=O)CN1C(=O)COc2ccc(S(=O)(=O)NC3CCCC3)cc21 2.78%
CCOc1ccc(-c2csc(-c3c(N)c(C(=O)c4ccc5c(c4)OCO5)n4ccccc34)n2)cc1 -5.56%
Cn1nc(-c2ccc(N3CCCCC3)c(NC(=O)c3ccc(Cl)cc3)c2)c2ccccc2c1=O -7.9%
Cc1ccccc1CSc1nc2c([nH]c3ccccc32)c(=O)n1C 0.244%
CCOC(=O)c1cc(S(=O)(=O)Nc2ccccc2OCC)[nH]n1 -6.38%
COc1ccc(-n2c(=O)c3c4c(sc3n3c(SC(C)C)nnc23)COC(C(C)C)C4)cc1 (centres undefined) -0.173%
CCCc1cc(=O)[nH]c(SCc2nc(-c3ccccc3F)no2)n1 -0.484%
CC(=O)c1cccc(Nc2ccc3cc(S(=O)(=O)N4CCCC4)ccc3n2)c1 0.834%
COc1ccc(NC(=O)c2cc(=O)c3ccc(C)c(C)c3o2)cc1Cl 0.796%
CC1CCN(S(=O)(=O)c2ccc3c(c2)N(CC(=O)NCCCN2CCCC(C)C2)C(=O)CS3)CC1 (centres undefined) 6.18%
Cc1cccc(CNC(=O)c2ccc(NC(=O)N3CCSc4ncccc43)cc2)c1 0.978%
CCOc1ccc(NC(=O)C(C)Sc2nc3ncccc3o2)cc1 (centres undefined) -2.91%
CC(=O)c1ccc(N2CCN(c3ncnc4c3cnn4C)CC2)cc1 1.78%
Cc1ccc2c(c1)-c1ncc(C(=O)c3cc(Br)ccc3O)cc1CO2 -7.15%
COc1ccc(-n2nc(C(=O)Nc3cccc(C)n3)c3c4ccccc4n(C)c3c2=O)cc1 -0.641%
Cc1cc(C)cc(NC(=O)Cn2c(=O)n(Cc3ccc4c(c3)OCO4)c(=O)c3oc4ccccc4c32)c1 -0.781%
Cc1cccc(CNC(=O)Cn2ccc3cc(S(=O)(=O)N4CCC(C)CC4)ccc32)c1 -9.39%
COc1ccccc1-c1cc(C(F)(F)F)nc(S(=O)(=O)CCCC(=O)Nc2ccc(F)cc2F)n1 -15.6%
O=C(Cn1c(=O)n(Cc2nc(-c3ccccc3)no2)c(=O)c2cc3c(cc21)OCO3)Nc1cccc(C(F)(F)F)c1 0.419%
CCOC(=O)c1c(C)[nH]c(C)c1S(=O)(=O)N(C)CC(=O)Nc1cccc(C(F)(F)F)c1 1.62%
CCOC(=O)C1CCN(C(=O)Cn2ncc3c([nH]c4ccccc43)c2=O)CC1 2.43%
Cc1cccc(C(=O)Nc2nc(-c3nnn(-c4cc(C)ccc4C)c3C)ns2)c1 -0.0384%
COc1ccc(NC(=O)Cn2c(=O)n(Cc3ccco3)c(=O)c3sc4ccccc4c32)cc1OC 6.28%
CCOc1cc(C#N)c(NC(=O)c2ccc(OC)c(S(=O)(=O)N3CCCCC3)c2)cc1OCC 1%
CC(=O)c1ccc(NC(=O)c2cnc(N3CCCC3)nc2C)cc1 0%
O=C(Cn1c(=O)n(Cc2ccco2)c(=O)c2ccccc21)Nc1cccc(F)c1 -1.9%
Cc1ccc(-n2c(-c3ccc(Br)cc3)nc3c(cnn3-c3ccccc3)c2=O)cc1 2.73%
CCc1ccccc1NC(=O)Cn1c(=O)n(-c2ccccc2)c(=O)c2oc3ccccc3c21 -9.15%
COc1ccccc1N1CCN(S(=O)(=O)c2ccc(-c3coc(C)n3)cc2)CC1 -7.89%
Cc1c2cnn(-c3ccccc3)c(=O)c2c(C)n1CC(=O)Nc1ccccc1Br -4.06%
Cc1ccc(N2CCN(C(=O)c3cn(C)c4ccc(S(=O)(=O)N5CCC(C)CC5)cc4c3=O)CC2C)cc1 (centres undefined) -2.41%
O=C(C1CCCCC1)N(Cc1cccnc1)c1nc2ccc(Cl)cc2s1 0.107%
O=C(Nc1nnc(S(=O)(=O)N2CCCc3ccccc32)s1)c1ccc(Cl)cc1 5.01%
CCN(C(=O)CSc1nc(-c2ccc(C(C)C)cc2)no1)c1ccccc1 -19.5%
COc1ccc2c(c1)CC(C(=O)Nc1ccc(Br)c(C)c1)CO2 (centres undefined) -2.25%
Cc1ccccc1-c1nc(CS(=O)(=O)CC(=O)NCCCN2CCN(C)CC2)c(C)o1 0.705%
COc1ccc(C(=O)NCC(=O)OCc2cc(=O)n3nc(C4CCCCC4)sc3n2)cc1 -0.972%
COc1ccc(NC(=O)CSc2nncn3c2cc2occc23)c(OC)c1 -15.6%
COc1ccc(-n2nnc(-c3nc(-c4ccc5c(c4)OCO5)no3)c2C)cc1Cl 0%
CCOC(=O)c1ccc(NC(=O)CCc2c(C)nc3cc(-c4ccc(OC)cc4OC)nn3c2C)cc1 -1.29%
CC(C)Oc1ccc(C(=O)N2CCC(c3nc4ccccc4s3)CC2)cc1 -18.5%
COc1cc(C(=O)Nc2ccc(-c3nc4cc(C)c(C)cc4o3)cc2)cc(OC)c1OC 8.61%
Cc1ccc(SCCNC(=O)CN(c2cccc(C)c2C)S(C)(=O)=O)cc1 -14.7%
CCOC(=O)c1c(C)oc2nc(C)nc(NCCc3ccc(OCC)cc3)c12 5.72%
CC1=C(C(=O)NCc2cccc(Cl)c2)C2(CCCCCC2)OC1=O -3.77%
CC(=O)Nc1ccc(S(=O)(=O)N2CCC(n3c(C)nc4cccnc43)CC2)cc1 0%
CCC(C)NC(=O)Cn1c(=O)n(-c2cc(OC)cc(OC)c2)c(=O)c2ccccc21 (centres undefined) -8.64%
CCOc1ccc(CN(CCc2ccc3c(c2)OCO3)Cc2cc(OC)cc(OC)c2)cc1 -14.6%
Cc1ccc2c(CNCCc3ccco3)c(C(=O)O)n(Cc3ccc(F)cc3)c2c1 -12%
COc1ccc(NC(=O)CCCc2nnc3n(C(C)C)c(=O)c4sccc4n23)cc1Cl 1.35%
CCOc1ccc(NC(=O)Cn2cc(C(=O)C3CC3)c3ccccc32)cc1 -0.789%
COc1ccc(C(=O)Nc2ccc(-c3nc4cc(C)ccc4o3)c(O)c2)cc1 -4.01%
O=C(CSc1nccn1Cc1ccco1)Nc1ccc(OC(F)(F)F)cc1 -2.55%
Cc1cc(=O)[nH]c2nnc(SCc3cccc(C(F)(F)F)c3)n12 0.0896%
Cc1nc(N2CCOCC2)c2c(C(=O)N3CCN(c4cccc(C(F)(F)F)c4)CC3)c(C)oc2n1 6.76%
